From PubChem BioAssay AID493208 (National Center for Advancing Translational Sciences (NCATS), 2011)
Out of some 44,000 compounds screened, about 340 (0.77%) were called active. About 5% were inconclusive and are not listed. The call rests on the fitted dose curve; in most records, active means well fitted inhibition curve with a large enough effect; inconclusive means small, poorly fitted or top-dose-only effect; inactive means flat fitted curve, though single readings scatter. Some of the results follow.

Test: Acumen qHTS Assay for Inhibitors of the mTORC1 Signaling Pathway in MEF (Tsc2-/-, p53-/-) Cells: Sytravon;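 further: plate controls were DMSO for no effect and rapamycin for full effect; nearly all actives have a fitted effect of over 50% in size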
Settings: phospho-rpS6 immunofluorescence/PI, 24 h; series mostly up to 38.3 µM; activity change, negative = inhibition: at the top concentration
Method in brief: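 Plate MEFs (Tsc2-/-, p53-/-, empty vector) in DMEM/10% FBS; after 24 h add compound, incubate 24 h at 37 degree Celsius; fix in PFA/TX-100, block, stain phospho-rpS6 and 10 uM PI; scan at 488 nm; report % positive cells.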

Activity change, negative = inhibition, inactive:
CCOc1cc(C2C(C(N)=O)=C(C)Nc3ncnn32)cc(Br)c1O (stereo unspecified) 1.81%
COc1ccc(-c2nc(S(=O)(=O)c3ccc(Cl)cc3)c(N3CCCCCC3)o2)cc1 3.43%
Cc1ccc(C(=O)NCCSc2c(C)[nH]c3ccccc23)cc1C 8.6%
Cc1cccc(NC(c2cccc(F)c2)c2ccc3ccc(C)nc3c2O)n1 (stereo unspecified) -16.8%
NC(=O)CSc1nc2ccc(NC(=O)COc3ccccc3)cc2s1 1.23%
CCCn1c(=N)c(C(=O)NC2CCCC2)cc2c(=O)n3cc(C)ccc3nc21 0.236%
CC1CCC(NC(=O)c2ccc3c(c2)N(Cc2ccccc2F)C(=O)c2ccccc2S3)CC1 (stereo unspecified) -0.0302%
CC1CCN(S(=O)(=O)c2ccc3c(c2)N(CC(=O)NCc2ccccc2Cl)C(=O)CS3)CC1 1.49%
Cc1nc2ccc(S(=O)(=O)NC(C(=O)NCc3ccccc3Cl)C(C)C)cc2s1 (stereo unspecified) -9.85%
CCCCNc1ccc(-c2nc(-c3ccccc3)no2)cc1[N+](=O)[O-] -7.27%
O=C(Nc1cccc(C(F)(F)F)c1)C1CCCN(S(=O)(=O)c2cccc3nsnc23)C1 (stereo unspecified) -3.65%
Cc1ccc2c(CC(=O)N3CCN(c4cccc(Cl)c4)CC3)coc2c1 2.25%
O=S(=O)(Nc1ccc(F)c(C(F)(F)F)c1)c1ccc(N2CCCCS2(=O)=O)cc1 23.5%
COc1ccc(C2C(=O)N(C3CCC(C)CC3)CC(=O)N2Cc2ccc(C)cc2)cc1OC (stereo unspecified) -10%
CSc1ncc(Cl)c(C(=O)NCc2ccc(C)cc2)n1 -3.35%
Cc1cc(C)cc(NC(=O)Cn2nnc(C(=O)NCCc3ccccc3)c2N)c1 -2.21%
COc1ccc(OC)c(CNS(=O)(=O)c2c(C(=O)N3CCC(C)CC3)c(C)n(C)c2C)c1 0%
CCOc1ccc(C(=O)NCCc2sc(-c3ccc(C)cc3)nc2C)cc1 -6.88%
COc1cc(Nc2nc(SCc3ccccc3F)nc3ccccc23)cc(OC)c1 -4.9%
Cc1ccc(CCNC(=O)c2ccc(CS(=O)(=O)c3ccc(Br)cc3)o2)cc1 -21.3%
CCOc1ccccc1NC(=O)CSc1c(C)cnc2c1c(=O)n(C)c(=O)n2C -0.136%
CC1=C(C(=O)Nc2cccc(C)c2C)C2(CCCCC2)OC1=O -11.4%
CC1=C(C(=O)Nc2c(C)cc(C)cc2C)C2(CCN(C(C)C)CC2)OC1=O 0%
CCOCCCNC(=O)C(c1ccc(OC)cc1)N(Cc1cccs1)C(=O)c1ccccc1O (stereo unspecified) 3.76%
COc1ccc(CCNC(=O)c2cnc3sc(N4CCCCCC4)nn3c2=O)cc1OC 0.0984%
CC(C)CCN1C(=O)N(c2ccccc2)C(=O)C1CC(=O)Nc1ccc(Cl)cc1 (stereo unspecified) -0.587%
CC(C)NC(=O)CSc1nc2ccccc2nc1N1CCCCC1 -1.44%
Cc1ccc(Sc2ccc(N3CCCC(C(=O)Nc4ccc(Cl)cc4)C3)nn2)cc1 (stereo unspecified) 0.421%
COc1ccc(C(c2c(C)n(C)n(-c3ccccc3)c2=O)c2c(C)n(C)n(-c3ccccc3)c2=O)cc1O -20.7%
CCOc1cccc2sc(N(Cc3cccnc3)C(=O)c3ccco3)nc12 -2.56%
COc1cc(OC)c(NC(=O)Nc2nnc(N(C)C3CCCCC3)s2)cc1Cl 2.69%
Cc1ccc(N2CC(NC(=O)Cc3cccs3)CC2=O)cc1 (stereo unspecified) -3.25%
COc1ccc(-c2cc3c(=O)n(CC(=O)Nc4ccccc4C(F)(F)F)ccn3n2)cc1OC 21.6%
CC1CCN(CC(=O)N2CCCc3c2c(=O)oc2ccc(OCc4ccccc4)cc32)CC1 -3.82%
CC(=O)c1ccc(NC(=O)CN(C)S(=O)(=O)c2cc3c(cc2C)NC(=O)CO3)cc1 -6.31%
Cc1c(C(=O)Nc2ccc(Br)cc2F)oc2ccc(S(=O)(=O)N3CCCCC3)cc12 2.17%
CC1(C(=O)Nc2cccc(C(F)(F)F)c2)Cc2ccccc2C(=O)O1 (stereo unspecified) -11.9%
COc1ccc(CNC(=O)C2CCCCN2S(=O)(=O)c2ccc(F)cc2)cc1 (stereo unspecified) 5.64%
Cc1nc(N2CCOCC2)c2c(C(=O)N3CCN(c4cc(Cl)ccc4C)CC3)c(C)oc2n1 -4.44%
O=C(CN1C(=O)C2CCCCN2c2ccc(C(=O)N3CCCC3)cc21)NCc1ccc(F)cc1 (stereo unspecified) 0%
CCOc1ccccc1CNc1ncnc2onc(-c3ccc(F)cc3)c12 -2.52%
CCN1CCC(N(Cc2ccc(F)cc2)C(=O)Nc2cc(C)ccc2C)CC1 0.19%
CCCNC(=O)CN1C(=O)COc2ccc(S(=O)(=O)N3CCCC3)cc21 -7.58%
COc1ccc(-n2cc(C(=O)NCCc3ccc(C)cc3)c3ccccc3c2=O)cc1 -21%
CC1CCCCN1C(=O)CSc1nc2ccccc2nc1Cc1ccccc1 (stereo unspecified) -0.447%
COC(=O)c1ccc(C2CC(=O)Nc3c2c(C)nn3-c2nc(C)cc(C)n2)cc1 (stereo unspecified) -1.06%
O=C(Nc1ccc(S(=O)(=O)Nc2ncccn2)cc1)c1cccc(Cl)c1 -5.33%
CCOc1ccc(N2C(=O)c3[nH]nc(-c4ccccc4)c3C2c2ccc(O)c(OC)c2)cc1 (stereo unspecified) -23%
CCn1c(SC)nc2c([nH]c3ccccc32)c1=O -5.23%
Cc1cc(C)cc(NC(=O)CC(C)n2nc(C)cc2C)c1 (stereo unspecified) -11.3%
CCN(CC)c1ccc(NC(=O)CN2CCN(S(=O)(=O)c3ccc(C(C)C)cc3)CC2)cc1 -10.5%
O=C(Cn1ccc2cc(S(=O)(=O)N3CCCC3)ccc21)NCc1ccc(Cl)cc1 -7.02%
COc1ccc(CNC(=O)c2ccc3c(c2)N=C(C)c2c(C)ccc(C)c2S3)cc1 0.981%
COc1cc(NC(=O)Cn2c(=O)n(Cc3ccccc3)c(=O)c3oc4ccccc4c32)cc(OC)c1 1.74%
CCOC(=O)c1c(S(=O)(=O)N2CCC(C(=O)Nc3ccc(C)cn3)CC2)c(C)n(C)c1C 0.287%
Cc1cc(-c2ccc(S(=O)(=O)Nc3ccccc3C)cc2)on1 -18.1%
COc1ccc(-c2noc(CC(=O)N(C)c3ccccc3F)n2)cc1 0.316%
O=C(Nc1ccc(F)cc1)C1CCN(c2nc3ccccc3nc2C(F)(F)F)CC1 3.9%
COc1ccc(NC(=O)C2=C(C)Nc3nc(SCc4ccc(C)cc4C)nn3C2c2cccc(OC)c2OC)cc1 (stereo unspecified) 8.43%
Cc1[nH]c(=O)[nH]c(=O)c1S(=O)(=O)Nc1cccc(Cl)c1C -7.78%
CCOc1ccc(CNC(=O)Cn2nc(C)c3nn(-c4ccc(Cl)cc4)c(C)c3c2=O)cc1 0%
COc1cc(-c2ccno2)ccc1S(=O)(=O)N1CCN(c2cccc(Cl)c2)CC1 1.05%
COc1ccccc1NC(=O)c1sc2nc(-c3cc4cc(Cl)ccc4oc3=O)[nH]c(=O)c2c1C -15.3%
Cc1ccc(CNC(=O)c2oc3ccc(S(=O)(=O)N4CCCC(C)C4)cc3c2C)cc1 (stereo unspecified) 5.48%
Cc1oc2ncnc(N3CCCCC3)c2c1C(=O)NCC1CCN(Cc2ccccc2F)CC1 3.49%
COc1ccc(OC)c(NC(=O)Cn2nc3c(cc2=O)CCCC3)c1 2.7%
CCc1ccc(NC(=O)CC2C(=O)N(c3cccc(C)c3)C(=O)N2Cc2cccc(OC)c2)cc1 (stereo unspecified) -0.775%
COc1ccc(CCNS(=O)(=O)c2ccc3c(c2)c(=O)n(C)c(=O)n3C)cc1OC 1.33%
CCc1nn(CC(=O)NCc2ccco2)c(=O)c2cc3cc(F)ccc3n12 0.645%
Cc1ccc(NC(=O)c2nc(S(C)(=O)=O)ncc2N(Cc2cccc(F)c2)Cc2ccco2)cc1C 0.0042%
NS(=O)(=O)c1ccc(NC(=O)c2cc(-c3cccs3)nc3ccccc23)cc1 14.6%
Cc1ccc(NC(=O)CCCc2nnc3n(C)c(=O)c4sccc4n23)cc1C -15.3%
Cc1cccc2sc(N(CCCN(C)C)C(=O)COc3ccccc3)nc12 -0.948%
COC(=O)c1ccccc1NC(=O)Cn1c(=O)n(-c2cccc(C(F)(F)F)c2)c(=O)c2c(C)c(C)sc21 -0.613%
Cc1ccc(C)c(N2CCN(C(=O)c3cc(S(=O)(=O)N4CCCCCC4)cn3C)CC2)c1 -13%
COCCCNC(=O)c1ccc(Cn2c(SCc3cccc(C)c3)nc3cccnc32)cc1 -8.57%
Cc1ccc(S(=O)(=O)NCC2CCC(C(=O)NCCc3ccc(Cl)cc3)CC2)cc1 (stereo unspecified) -12.6%
CCOc1ccc(N(CC)S(=O)(=O)N2CCCC(C(=O)NCCc3ccc(OC)cc3)C2)cc1 (stereo unspecified) -0.947%
O=C(/C=C\c1ccccc1)NC1CC(=O)N(c2ccccc2)C1 (stereo unspecified) -1.67%
CCOC(=O)C1CCCN(C(=O)c2nn(-c3ccc(C)cc3)c(=O)c3c2c2ccccc2n3C)C1 (stereo unspecified) -0.912%
CCCn1c(CCCNC(=O)c2ccccc2OC)nc2ccccc21 2.1%
Cc1cc(C)c2c(n1)sc1c(=O)n(-c3cc(Cl)ccc3C)nnc12 2.69%
CCN(Cc1ccccc1)C(=O)c1sc2nc3n(c(=O)c2c1C)CCCC3 9.99%
CCCCN(C)CCCNC(=O)Cn1ncc2c3ccccc3n(Cc3cc(C)ccc3C)c2c1=O -5.49%
COc1ccccc1CNC(=O)c1cc2c(s1)-c1ccccc1OC2 3.19%
CCC(=O)N1c2ccc(S(=O)(=O)CCC(=O)Nc3ccc(Br)c(C)c3)cc2CC1C (stereo unspecified) -5.48%
CCOCCCN(Cc1ccco1)C(=O)c1cc2c(=O)[nH]c3ccc(C)cc3c2s1 -4.06%
O=S(=O)(c1ccccc1)c1nnn2c1nc(NCc1ccccc1)c1sccc12 -10.1%
COCCNC(=O)Cn1c(=O)n(CCCCCC(=O)Nc2ccccc2)c(=O)c2sccc21 -6.18%
O=C(NCc1cccs1)c1ccc(Cn2c(SCc3ccc(F)cc3)nc3cccnc32)cc1 -4.78%
Cc1ccc(Cl)cc1N1CCN(C(=O)CN2C(=O)CSc3c2c(C)nn3-c2ccccc2)CC1 0.799%
COc1cccc(NC(=O)c2cnc(SCC(=O)N3CCOCC3)n(C)c2=O)c1 -1.86%
CCc1ccc2c(c1)-c1ccccc1S(=O)(=O)N2CC(=O)N1CCCCC1 -4.33%
COc1ccc(-c2cn3c(n2)sc2cc(C(=O)NCCc4ccc(OC)cc4OC)ccc23)cc1 -3.22%
O=C(NCCCc1nc2ccccc2n1Cc1ccc(Cl)cc1Cl)c1ccco1 -1.8%
COc1ccc(C(=O)N2c3ccc(C)cc3C(C)(c3ccccc3)CC2(C)C)cc1 (stereo unspecified) -6.87%
